PubChem BioAssay AID686971 (National Center for Advancing Translational Sciences (NCATS), 2013)
Screen size: about 360,000 compounds; about 7,500 (2.1%) were called active. The inconclusive results got no clear call from the source; some entries with a clear call stand among them for comparison. Calls follow the shape of the dose curve; as a rule, active = well fitted cell-killing curve with a large enough effect; inconclusive = small, poorly fitted or top-dose-only effect, or effect the other way, or another doubt; inactive = no such curve, though single readings can be large or run the other way. No potency is given beside an inconclusive call; the fits are too rough.
Potency is read from the fitted curve at half-maximal effect; tags tell the direction and shape of the fitted curve.

Assay: qHTS for induction of synthetic lethality in tumor cells producing 2HG: qHTS for the HT-1080-IDH1KD cell line;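 as to activity, negative = toxicity: 0% = DMSO wells and -100% = cell-free medium wells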
Details: HT-1080 IDH1 knockdown viability, ATP luminescence, 48 h; activity, negative = toxicity: at 46.1 µM (top of the series) unless noted
Outline: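 % activity derives from luminescence (CellTiter-Glo), normalised to DMSO and no-cell wells. HT-1080-IDH1KD cells, 750/well, had 48 h compound exposure at 37 °C.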
With `Sc1oc(-c2ccccc2)cc1C=Nc1ccccc1` the Potency was active: 11.2 µM.
For `O=C(NCc1ccco1)c1ccc2c(c1)C(=O)c1ccccc1-2`, the Potency was inconclusive [cytotoxic, single point].
For `CCOC(=O)N1CCN(c2c(N3CCc4ccccc4C3)c(=O)c2=O)CC1`, the Potency was “inactive”.
In the case of `CC(C)N1CCN(c2ccc(OC[C@H]3CO[C@](Cn4cncn4)(c4ccc(Cl)cc4Cl)O3)cc2)CC1`, the Potency is reported as inconclusive [cytotoxic, single point].
For `COc1ccc(S(=O)(=O)N2CCN(c3cc(-c4ccccc4)nc4ncnn34)CC2)cc1`, the Potency was inconclusive [cytotoxic, single point].
In the case of `COc1ccc(-c2oc(=O)c3cc(OC)c(OC)cc3c2/C=C/c2ccc(OC(C)=O)cc2)cc1`, the Potency is reported as inconclusive [cytotoxic, single point].
With `Cc1cc(NC(=O)CSc2nccn2-c2cccc(C)c2C)no1` the Potency was inconclusive [cytotoxic, partial curve].
With `COc1cc(CNC(=O)c2ccc(Cn3nc(C)c(Cl)c3C)o2)cc(OC)c1` the Potency was inconclusive [cytotoxic, single point].
For `CCn1c(N2CCN(C(=O)/C=C/c3ccccc3)CC2)nc2ccccc21`, the Potency was “inactive”.
In the case of `CC(C)Oc1ccc(CCc2n[nH]c(=S)n2-c2ccccc2)cc1`, the Potency is reported as “inactive”.
With `COCCNC(=O)c1ccc(CS(=O)(=O)c2cccc(C(F)(F)F)c2)o1` the Potency was “inactive”.
With `CN(c1cccc(NC(=O)c2ccc(N(C)S(=O)(=O)c3ccccc3)cc2)c1)S(C)(=O)=O` the Potency was inconclusive [cytotoxic, single point].
With `O=C(COC(=O)c1ccc([N+](=O)[O-])o1)Nc1ccc(N2CCOCC2)cc1` the Potency was “inactive”.
For `Cc1cc(C(=O)NCc2ccc(F)cc2)n(-c2ccccc2)n1`, the Potency was “inactive”.
With `Cc1ccc(O)c(NC(=S)NC(=O)Cc2ccc(Cl)cc2)c1` the Potency was inconclusive [cytotoxic, single point].
With `Cc1onc(-c2ccccc2Cl)c1C(=O)Nc1cccc2cccnc12` the Potency was inconclusive [cytotoxic, full curve].
In the case of `FC(F)Oc1ccc(-c2c[n+]3c(n2-c2ccccc2)CCCCC3)cc1`, the Potency is reported as inconclusive [cytotoxic, single point].
With `COc1ccc(S(=O)(=O)NCc2ccccn2)cc1NC(=O)c1ccc(Cl)cc1` the Potency was inconclusive [cytotoxic, partial curve].
In the case of `COc1ccc(S(=O)(=O)N(C)c2ccc(C(=O)NCc3ccccn3)cc2)cc1`, the Potency is reported as “inactive”.
In the case of `O=C1C(=Cc2cccc(Cl)c2)CCc2ccccc21`, the Potency is reported as inconclusive [cytotoxic, single point].
In the case of `S=C(NNc1cccc(Cl)c1)NC1CCCCC1`, the Potency is reported as active: 14.6 µM.
With `CCOC(=O)Cc1[nH]nc2c1C(Cc1ccccc1)C(C#N)=C(N)O2` (configuration not stated) the Potency was “inactive”.
With `COc1ccc(C(=O)NC(=S)Nc2ccc(CN3CCCCC3)cc2)cc1Cl` the Potency was inconclusive [cytotoxic, single point].
With `COc1ccc(Nc2oc(-c3ccc(Cl)cc3)nc2C#N)cc1` the Potency was inconclusive [cytotoxic, single point].
In the case of `O=C(OCc1ccccc1)N1CCOCCOCCN(C(=O)OCc2ccccc2)CCOCCOCC1`, the Potency is reported as inconclusive [cytotoxic, partial curve].
For `COc1cc(/C=N/N=C/c2cc(OC)c(O)c(OC)c2)cc(OC)c1O`, the Potency was “inactive”.
In the case of `CCS(=O)(=O)c1nnnn1-c1ccccc1S(C)(=O)=O`, the Potency is reported as active: 12.6 µM.
For `Oc1c(CN2CCCCC2)cc(Br)c2cccnc12`, the Potency was inconclusive [cytotoxic, partial curve].
In the case of `CC1CCCN(CCCNC(=O)c2ccc3c(c2)N(Cc2ccccc2F)C(=O)c2ccccc2S3(=O)=O)C1` (configuration not stated), the Potency is reported as inconclusive [cytotoxic, single point].
In the case of `COc1ccc(CN(C(=O)c2ccco2)C2CCS(=O)(=O)C2)cc1` (configuration not stated), the Potency is reported as “inactive”.
With `O=C(/C=C/c1ccccc1)c1ccc2c(c1)OCO2` the Potency was “inactive”.
With `CS(=O)(=O)c1ccc(Nc2nc(C(N)c3ccccc3Cl)cs2)cc1` (configuration not stated) the Potency was inconclusive [cytotoxic, single point].
In the case of `CCOc1ccc(NC(=O)c2ccc(OCC3CCCO3)cc2)cc1S(=O)(=O)N(CC)CC` (configuration not stated), the Potency is reported as inconclusive [cytotoxic, partial curve].
For `CCC(C)(C)NC(=O)c1ccc2c(c1)S(=O)(=O)c1ccccc1C2=O`, the Potency was inconclusive [cytotoxic, single point].
In the case of `COCCn1c(SCC(=O)Nc2ccc(Cl)cn2)nc2ccccc21`, the Potency is reported as inconclusive [cytotoxic, single point].
For `COc1cc(N(CCCn2cnc3c(SC)ncnc32)CCCn2cnc3c(SC)ncnc32)cc(OC)c1OC`, the Potency was “inactive”.
With `O=C(NNc1ccc([N+](=O)[O-])cc1)c1ccccc1F` the Potency was inconclusive [cytotoxic, partial curve].
With `O=C(CC(Sc1ccccc1)c1cccs1)c1ccco1` (configuration not stated) the Potency was inconclusive [cytotoxic, single point].
For `COc1ccccc1C(=O)NNC1=NS(=O)(=O)c2ccccc21`, the Potency was “inactive”.
With `CC1CC(C)CN(S(=O)(=O)c2ccc(NN)nc2)C1` (configuration not stated) the Potency was inconclusive [cytotoxic, partial curve].
In the case of `O=C(OCc1cn([C@H]2CN(CC3CCCCC3)[C@@H](c3ccccc3)C[C@@H]2O)nn1)c1ccccc1`, the Potency is reported as “inactive”.
With `COc1cc(CNCc2ccccc2)c(Br)cc1OC1CCCC1` the Potency was inconclusive [cytotoxic, single point].
In the case of `COC(=O)C1=C(C(=O)OC)[C@@H]2N(Cc3ccccc3)c3ccccc3[C@@]23C[C@@H](C(=O)OC)N(C(=O)C2CCC2)C3=N1`, the Potency is reported as “inactive”.
For `CC(NC(=O)C1CCC(=O)N1Cc1ccc(F)cc1)c1ccc2c(c1)OCCO2` (configuration not stated), the Potency was “inactive”.
For `Cc1ccc2c(NCc3ccco3)nc(NC(C)C)nc2c1`, the Potency was active: 18.4 µM.
For `O=C(Nc1ccc2oc(-c3ccccc3)nc2c1)c1cccs1`, the Potency was “inactive”.
For `Cc1cc(-c2ccc(C)c(S(=O)(=O)N3CCN(c4ccccn4)CC3)c2)on1`, the Potency was inconclusive [cytotoxic, single point].
With `C/C(=N\NC(=O)c1ccccc1O)c1ccc(Br)s1` the Potency was active: 14.6 µM.
With `COC(=O)CCC(=O)N(CCN(C(=O)CCC(=O)OC)c1ccccc1)c1ccccc1` the Potency was “inactive”.
For `Cc1ccc2[nH]c3c(c2c1)CN(C(=O)CN1CCN(Cc2ccc4c(c2)OCO4)CC1)CC3`, the Potency was inconclusive [cytotoxic, partial curve].
In the case of `CC1CCCCC1NC(=O)CSc1nnc(N)s1` (configuration not stated), the Potency is reported as inconclusive [rising, single point].
With `CCOCCCNC(=O)c1ccc(N2CC3CC(C2)c2cccc(=O)n2C3)c(NC(=O)Nc2cccc(OC)c2)c1` (configuration not stated) the Potency was “inactive”.
For `COC(CNC(=O)c1ccc2c3c(onc13)-c1ccccc1C2=O)OC`, the Potency was inconclusive [cytotoxic, single point].
In the case of `COCC(=O)Oc1cc(-c2ccc(C)cc2C)c(OC(=O)COC)c(-c2ccc(C)cc2C)c1`, the Potency is reported as inconclusive [cytotoxic, single point].
With `Cc1ccc(NC(=O)Cn2c(=O)oc3cc(S(=O)(=O)N4CCC(C)CC4)ccc32)cc1C` the Potency was inconclusive [cytotoxic, partial curve].
For `NC(=O)SCC(=O)Nc1ccc(Cl)cc1`, the Potency was inconclusive [cytotoxic, single point].
With `COc1ccccc1CC(=O)N(CCC#N)CCC#N` the Potency was “inactive”.
In the case of `CC(C)(C)c1cc(C(=O)NNc2cc(C(F)(F)F)ccc2Cl)n(Cc2ccccc2)n1`, the Potency is reported as inconclusive [cytotoxic, single point].
With `CC(C)(C)C(=O)C(Cl)C(=O)Nc1ccccc1` (configuration not stated) the Potency was inconclusive [cytotoxic, single point].
For `CCN(CC)C(=O)Cn1c(C)c(/C=C/c2cc[n+](C)cc2)c2ccccc21`, the Potency was “inactive”.
With `CC1CCCC=CC2CC(OC(=O)CN(C)C)CC2C(O)C=CC(=O)O1` (configuration not stated) the Potency was active: 0.0291 µM.
In the case of `CC(/C=N/NC(=O)c1ccc(Cn2cc([N+](=O)[O-])cn2)o1)=C\c1ccccc1`, the Potency is reported as “inactive”.
In the case of `CC(C)n1cc(CN2CCC(C(=O)Nc3ccc(Oc4ccccc4F)cc3)CC2)cn1`, the Potency is reported as active: 20.6 µM.
For `CCCN(C(=O)COC(=O)c1nc2nc(C)cc(C)n2n1)C1CCS(=O)(=O)C1` (configuration not stated), the Potency was “inactive”.
With `Cc1ccc(-n2nc3ccc(NC(=O)c4ccc5c(c4)OCO5)cc3n2)cc1` the Potency was inconclusive [cytotoxic, single point].
In the case of `Cc1cccc(N2CCN(c3nc4ccc(Cl)cc4n4cnnc34)CC2)c1C`, the Potency is reported as “inactive”.
In the case of `CN(C)CCCN(C(=O)c1cc(-c2cccs2)nc2ccccc12)c1nc2c(F)cccc2s1`, the Potency is reported as inconclusive [cytotoxic, single point].
For `O=C(Nc1nc2ccccc2n1CCN1CCOCC1)c1cn(-c2ccccc2)nc1-c1ccccc1`, the Potency was inconclusive [cytotoxic, partial curve].
In the case of `C=CCn1sc(=N)c(C#N)c1N`, the activity, negative = toxicity is reported as inactive: 1.65% [at 9.24 µM].
For `CN(C)C(=O)c1cccc(-c2cc(NC=O)c3ncc(-c4ccc(F)c(Cl)c4)n3c2)c1`, the Potency was inconclusive [cytotoxic, single point].
With `Cc1cc(C)n(CC(O)Cn2c3ccc(Br)cc3c3cc(Br)ccc32)c(=O)n1` (configuration not stated) the Potency was inconclusive [cytotoxic, single point].
With `COC(=O)c1sc(=S)n(-c2cc(F)ccc2F)c1N` the Potency was “inactive”.
